The IC50 comes from the fitted curve, where viability falls to half of the control; a fit beyond the top or the lowest dose is shown as a bound at that dose. The AUC spans the tested range (256-fold, ending at the top dose) of the same fit; it is 1 without any effect and falls as sensitivity rises. For some of these results: The top dose, if marked as inferred, is not printed in the source and was worked back from the curve model. For some of these results: An entry number marks a drug with two screens in the source, which often give different values.
What was measured:
PAC-1 = compound: C=CCc1cccc(/C=N/NC(=O)CN2CCN(Cc3ccccc3)CC2)c1O [PAC-1]; assay: Viability of human cancer cell lines after 72 h of drug (GDSC screen); conditions: top dose 2.56 µM
Experimental: (§1)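 Human cancer cell lines in 384-well plates, medium with 10% serum, drug for 72 h over a 256-fold dose range (nine 2-fold or five 4-fold steps up to the top dose). Adherent lines were fixed and stained with the nucleic acid dye Syto60, suspension lines read with resazurin; signal relative to control wells, capped at 0 and 100%. One two-parameter sigmoid per drug and line, fitted in a mixed model over all curves with the slope shared within a line.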

BMS-708163 = compound: NC(=O)[C@@H](CCC(F)(F)F)N(Cc1ccc(-c2ncon2)cc1F)S(=O)(=O)c1ccc(Cl)cc1 [BMS-708163]; assay: as above; conditions: top dose 5 µM; screen: GDSC drug entry 1072; top dose inferred
Experimental: as §1

Cell Line	AUC (PAC-1)	IC50 (PAC-1)	AUC (BMS-708163)	IC50 (BMS-708163)
SW620 (large intestine, adherent)	0.945	> 2560 nM	0.989	> 5000 nM
MKN1 (stomach, adherent)	0.9	> 2560 nM	0.986	> 5000 nM
LN-229 (glioma, adherent)	0.985	> 2560 nM	0.98	> 5000 nM
HCC202 (breast, adherent)	0.715	842 nM	0.969	> 5000 nM
NCI-H1651 (lung adenocarcinoma, adherent)	0.914	> 2560 nM	0.901	> 5000 nM
MFE-296 (endometrium, adherent)	0.984	> 2560 nM	0.985	> 5000 nM
WM793B (melanoma, adherent)	0.921	> 2560 nM	0.984	> 5000 nM
HuO-3N1 (osteosarcoma, adherent)	0.962	> 2560 nM	0.915	> 5000 nM
CHSA0108 (chondrosarcoma, adherent)	0.816	1710 nM	0.984	> 5000 nM
TCCSUP (bladder, adherent)	0.975	> 2560 nM	0.976	> 5000 nM
Hep 3B2_1-7 (liver, adherent)	0.862	2190 nM	0.95	> 5000 nM
HCC1937 (breast, adherent)	0.981	> 2560 nM	0.955	> 5000 nM
MDA-MB-330 (breast, adherent)	0.978	> 2560 nM	–	–
Hs633T (fibrosarcoma, adherent)	0.885	1910 nM	0.963	> 5000 nM
CP50-MEL-B (melanoma, adherent)	0.982	> 2560 nM	0.988	> 5000 nM
MDA-MB-157 (breast, adherent)	0.951	> 2560 nM	0.889	> 5000 nM
PE/CA-PJ15 (head and neck, adherent)	0.986	> 2560 nM	0.985	> 5000 nM
PCI-38 (head and neck, adherent)	0.979	> 2560 nM	0.895	> 5000 nM
C-4-I (cervix, adherent)	0.975	> 2560 nM	0.979	> 5000 nM
HuP-T4 (pancreas, adherent)	0.982	> 2560 nM	0.897	> 5000 nM
RT-112 (bladder, adherent)	0.89	> 2560 nM	0.944	> 5000 nM
TMK-1 (stomach, adherent)	0.984	> 2560 nM	0.986	> 5000 nM
KYSE-270 (oesophagus, adherent)	0.808	1100 nM	0.979	> 5000 nM
Ca-Ski (cervix, adherent)	0.934	> 2560 nM	0.959	> 5000 nM
8505C (thyroid, adherent)	0.836	1840 nM	0.985	> 5000 nM

Cell Line	AUC (PAC-1)	IC50 (PAC-1)	AUC (BMS-708163)	IC50 (BMS-708163)
22RV1 (prostate, adherent)	0.943	> 2560 nM	0.881	> 5000 nM
RPMI-7951 (melanoma, adherent)	0.98	> 2560 nM	0.985	> 5000 nM
RERF-LC-KJ (lung adenocarcinoma, adherent)	0.813	1440 nM	0.984	> 5000 nM
HuCCT1 (biliary tract, adherent)	0.805	1470 nM	0.978	> 5000 nM
SW780 (bladder, adherent)	0.977	> 2560 nM	0.977	> 5000 nM
BEN (non-small cell lung carcinoma, adherent)	0.985	> 2560 nM	0.986	> 5000 nM
Caov-4 (ovary, adherent)	0.887	> 2560 nM	0.942	> 5000 nM
HT-1080 (fibrosarcoma, adherent)	0.989	> 2560 nM	0.893	4870 nM
OE21 (oesophagus, adherent)	0.819	2240 nM	0.931	> 5000 nM
SW982 (soft tissue, adherent)	0.916	> 2560 nM	0.962	> 5000 nM
NCI-H1623 (lung adenocarcinoma, adherent)	0.981	> 2560 nM	0.911	> 5000 nM
RKN (ovary, adherent)	0.977	> 2560 nM	0.977	> 5000 nM
42-MG-BA (glioma, adherent)	0.95	> 2560 nM	0.963	> 5000 nM
IA-LM (large cell lung carcinoma, adherent)	0.985	> 2560 nM	0.982	> 5000 nM
T98G (glioma, adherent)	0.989	> 2560 nM	0.989	> 5000 nM
SW13 (adrenal gland, adherent)	0.987	> 2560 nM	0.988	> 5000 nM
EFM-192A (breast, adherent)	0.963	> 2560 nM	0.974	> 5000 nM
CAL-29 (bladder, adherent)	0.955	> 2560 nM	0.973	> 5000 nM
BHY (head and neck, adherent)	0.961	> 2560 nM	0.977	> 5000 nM
SNU-387 (liver, adherent)	0.97	> 2560 nM	0.984	> 5000 nM
SW1271 (small cell lung carcinoma, adherent)	0.926	> 2560 nM	0.966	> 5000 nM
MFE-319 (endometrium, adherent)	0.972	> 2560 nM	0.984	> 5000 nM
PA-TU-8988T (pancreas, adherent)	0.976	> 2560 nM	0.981	> 5000 nM
KARPAS-620 (haematopoietic neoplasm, suspension)	0.939	> 2560 nM	0.991	> 5000 nM
COLO-679 (melanoma, adherent)	0.74	857 nM	0.971	> 5000 nM

Cell Line	AUC (PAC-1)	IC50 (PAC-1)	AUC (BMS-708163)	IC50 (BMS-708163)
201T (lung adenocarcinoma, adherent)	0.911	> 2560 nM	0.934	> 5000 nM
JHH-4 (liver, adherent)	0.925	> 2560 nM	0.986	> 5000 nM
BICR10 (head and neck, adherent)	0.98	> 2560 nM	0.985	> 5000 nM
A172 (glioma, adherent)	0.978	> 2560 nM	0.932	> 5000 nM
HCC-44 (lung adenocarcinoma, adherent)	0.85	1870 nM	0.986	> 5000 nM
G-401 (kidney, adherent)	0.751	915 nM	0.941	> 5000 nM
PANC-04-03 (pancreas, adherent)	0.927	> 2560 nM	0.978	> 5000 nM
ACHN (kidney, adherent)	0.848	2310 nM	0.976	> 5000 nM
CCF-STTG1 (glioma, adherent)	0.964	> 2560 nM	0.988	> 5000 nM
EFO-27 (ovary, adherent)	0.882	> 2560 nM	0.959	> 5000 nM
LU-99A (large cell lung carcinoma, adherent)	0.974	> 2560 nM	0.987	> 5000 nM
SW626 (ovary, adherent)	0.928	> 2560 nM	0.935	> 5000 nM
TOV-112D (ovary, adherent)	0.923	> 2560 nM	0.983	> 5000 nM
HT-1376 (bladder, adherent)	0.947	> 2560 nM	–	–
CHL-1 (melanoma, adherent)	0.959	> 2560 nM	0.987	> 5000 nM
HOP-92 (large cell lung carcinoma, adherent)	0.973	> 2560 nM	0.981	> 5000 nM
NCI-H2342 (lung adenocarcinoma, adherent)	0.911	> 2560 nM	–	–
JSC-1 (B-cell lymphoma, suspension)	0.904	> 2560 nM	0.985	> 5000 nM
UMC-11 (lung carcinoid, adherent)	0.991	> 2560 nM	0.982	> 5000 nM
CAL-12T (non-small cell lung carcinoma, adherent)	0.983	> 2560 nM	0.893	> 5000 nM
UM-UC-3 (bladder, adherent)	0.988	> 2560 nM	0.985	> 5000 nM
G-292 Clone A141B1 (osteosarcoma, adherent)	0.943	> 2560 nM	0.968	> 5000 nM
CAL-51 (breast, adherent)	0.907	> 2560 nM	0.987	> 5000 nM
HSC-4 (head and neck, adherent)	0.971	> 2560 nM	0.954	> 5000 nM
RPMI-2650 (head and neck, adherent)	0.948	> 2560 nM	0.873	> 5000 nM

Cell Line	AUC (PAC-1)	IC50 (PAC-1)	AUC (BMS-708163)	IC50 (BMS-708163)
H2373 (mesothelioma, adherent)	0.974	> 2560 nM	0.983	> 5000 nM
BT-20 (breast, adherent)	0.98	> 2560 nM	0.944	> 5000 nM
HT-29 (large intestine, adherent)	0.846	1850 nM	0.916	> 5000 nM
JHH-7 (liver, adherent)	0.93	> 2560 nM	0.989	> 5000 nM
786-0 (kidney, adherent)	0.755	805 nM	0.52	353 nM
HCC70 (breast, adherent)	0.988	> 2560 nM	0.953	> 5000 nM
COLO-205 (large intestine, suspension)	0.852	1940 nM	0.985	> 5000 nM
CAL-85-1 (breast, adherent)	0.929	> 2560 nM	0.953	> 5000 nM
SW1573 (lung adenocarcinoma, adherent)	0.975	> 2560 nM	0.971	> 5000 nM
PANC-03-27 (pancreas, adherent)	0.766	883 nM	0.983	> 5000 nM
MDA-MB-453 (breast, adherent)	0.973	> 2560 nM	0.921	> 5000 nM
LoVo (large intestine, adherent)	0.98	> 2560 nM	–	–
Caov-3 (ovary, adherent)	0.991	> 2560 nM	–	–
NCI-H810 (large cell lung carcinoma, adherent)	0.948	> 2560 nM	–	–
SISO (cervix, adherent)	0.983	> 2560 nM	–	–
SW756 (cervix, adherent)	0.984	> 2560 nM	–	–
NCI-H2228 (lung adenocarcinoma, adherent)	0.93	> 2560 nM	–	–
COLO-792 (melanoma, adherent)	0.97	> 2560 nM	–	–
LCLC-97TM1 (large cell lung carcinoma, adherent)	0.831	1850 nM	–	–
SNU-475 (liver, adherent)	0.984	> 2560 nM	–	–
SNU-C2B (large intestine, adherent)	0.975	> 2560 nM	–	–
BICR31 (head and neck, adherent)	0.987	> 2560 nM	–	–
VMRC-RCW (kidney, adherent)	0.902	> 2560 nM	–	–
HCC-78 (lung adenocarcinoma, adherent)	0.921	> 2560 nM	–	–
